{
  "source": "PubChem BioAssay AID1745845",
  "about": "(National Center for Advancing Translational Sciences (NCATS), 2022)",
  "note": "Values joined by “and” are separate entries in the source; they are usually repeats but may differ in a detail not shown here. Identical values can stand only once. Out of some 360,000 compounds screened, about 2,600 (0.72%) were called active. This list was built around the results that the source calls inconclusive (neither active nor inactive); the mix of calls is not that of the screen. Calls follow the shape of the dose curve; as a rule, active = well fitted inhibition curve with a large enough effect; inconclusive = small, poorly fitted or top-dose-only effect; inactive = no such curve, though single readings can be large or run the other way. Potencies beside an inconclusive call are fits to weak or partial responses and may not hold up. % is scaled to controls: 0 for no effect and ±100 for the full control effect; potency is read from the fitted curve at half-maximal effect; tags tell the direction and shape of the fitted curve.",
  "data": [
    {"experiment": "Primary qHTS for Inhibitors of ATXN expression; also: nearly all actives have a fitted effect of over 55% in size", "settings": "HEK-293 ATXN2-luciferase reporter, luminescence, 24 h; activity change, negative = inhibition: at 57 µM (top of the series)", "in_short": "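ATXN2-luciferase reporter cells (luciferase flanked by upstream and downstream ATXN2 gene portions) were treated 24 h at 37 °C with compounds at up to 57 uM. SteadyGlo luminescence gave expression; GF-AFC fluorescence gave viability.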", "values": [
      {"smiles": "C=C1c2cccc(O)c2C(O)=C2C(=O)[C@@]3(O)C(O)=C(C(N)=O)C(=O)[C@@H](N(C)C)[C@@H]3[C@@H](O)[C@H]12", "Potency": "inconclusive: 15.3 µM [inhibitor, partial curve, poor fit]"},
      {"smiles": "CCOC(=O)C1=C(C)NC(=O)NC1c1cn(-c2ccccc2)nc1-c1ccc(OCC)cc1", "note": "(stereo unspecified)", "Potency": "inconclusive: 39.8 µM [inhibitor, single point]"},
      {"smiles": "CCCCOc1cccc(C(=O)Nc2cccc(-c3nc4ncccc4o3)c2C)c1", "Potency": "inconclusive: 39.8 µM [inhibitor, single point]"},
      {"smiles": "Cc1cc(/C=c2/sc3nc4ccccc4n3c2=O)c(C)n1-c1ccccn1", "activity change, negative = inhibition": "inactive: -84.3%"},
      {"smiles": "Cn1c(=O)c(Oc2ccc(F)cc2F)cc2cnc(NC3CCOCC3)nc21", "Potency": "inconclusive: 8.63 µM [inhibitor, partial curve]"},
      {"smiles": "O=C(Nc1cccc(F)c1)[C@H](CSCc1ccccc1)N1Cc2ccccc2C1=O", "activity change, negative = inhibition": "inactive: -8.21%"},
      {"smiles": "O=C(/C=C/c1c(Cl)cccc1Cl)Nc1ccncc1", "activity change, negative = inhibition": "inactive: 26.7%"},
      {"smiles": "Cc1cccc(N(C(=O)Cc2cccs2)C(C(=O)NC2CCCC2)c2ccncc2)c1", "note": "(stereo unspecified)", "activity change, negative = inhibition": "inactive: -6.32%"},
      {"smiles": "O=C(O)/C=C/c1cnn(-c2ccccc2)c1", "Potency": "inconclusive: 11.9 µM [inhibitor, partial curve, poor fit]"},
      {"smiles": "O=C1NN=C(c2ccc(Br)cc2)CC1c1ccc(Cl)cc1", "note": "(stereo unspecified)", "activity change, negative = inhibition": "inactive: -17.5%"},
      {"smiles": "CN(C)c1ccc(CC(=O)N2CCCC(c3cc(C(=O)Nc4ccc(C(C)(C)C)cc4)no3)C2)cc1", "note": "(stereo unspecified)", "Potency": "inconclusive: 14.1 µM [inhibitor, partial curve]"},
      {"smiles": "O=S(OCCN1CCOCC1)C(c1ccccc1)c1ccccc1", "note": "(stereo unspecified)", "activity change, negative = inhibition": "inactive: 9.38%"},
      {"smiles": "CCC(C(=O)Nc1ccncc1)c1ccccc1", "note": "(stereo unspecified)", "activity change, negative = inhibition": "inactive: 29.3%"},
      {"smiles": "O=C(COC(=O)c1nc(Cl)c(Cl)c(Cl)c1Cl)NCc1ccccc1", "Potency": "inconclusive: 39.8 µM [inhibitor, single point]"},
      {"smiles": "O=C1C2CCCCN2C(=O)N1CCCCN1CCN(c2ccccc2Oc2ccccc2)CC1", "note": "(stereo unspecified)", "Potency": "inconclusive: 22.4 µM [inhibitor, partial curve, poor fit]"},
      {"smiles": "CC1CCCC(NC(=S)Nc2cccc(S(=O)(=O)N(C)C)c2)C1C", "note": "(stereo unspecified)", "activity change, negative = inhibition": "inactive: -6.35%"},
      {"smiles": "CCn1c(=N)n(CC(O)COc2cccc(C)c2)c2ccccc21", "note": "(stereo unspecified)", "activity change, negative = inhibition": "inactive: -30%"},
      {"smiles": "CCSC1=C(C#N)C(=O)n2c1cc1c2CCCC1", "Potency": "inconclusive: 22.4 µM [inhibitor, partial curve, poor fit]"},
      {"smiles": "COc1ccc(-n2c(SCC(=O)c3ccc[nH]3)nnc2-c2ccccc2)cc1", "activity change, negative = inhibition": "inactive: 0.573%"},
      {"smiles": "COc1ccc(CNCC(O)(c2ccccc2)c2ccc(F)cc2)cc1OC", "note": "(stereo unspecified)", "Potency": "inconclusive: 8.91 µM [inhibitor, single point]"},
      {"smiles": "Cc1ccc(CNC(=O)CN2C(=O)COc3ccc(S(=O)(=O)Nc4ccccc4)cc32)cc1", "activity change, negative = inhibition": "inactive: 11.2%"},
      {"smiles": "c1ccc(-c2cc(-c3nn4c(-c5ccco5)nnc4s3)c3ccccc3n2)cc1", "Potency": "inconclusive: 25.1 µM [inhibitor, partial curve, poor fit]"},
      {"smiles": "O=C(O)c1oc2ccccc2c1CSc1ccc(Cl)cc1", "activity change, negative = inhibition": "inactive: -7.51%"},
      {"smiles": "CCOC(=O)N1CCN(C(=O)/C=C/c2ccc(C(C)(C)C)cc2)CC1", "activity change, negative = inhibition": "inactive: -10.4%"},
      {"smiles": "COc1ccccc1CNC(=O)CCC1N=C2c3ccccc3N=C(SCc3ccc(C)cc3C)N2C1=O", "note": "(stereo unspecified)", "Potency": "inconclusive: 28.2 µM [inhibitor, single point]"},
      {"smiles": "Clc1ccc(-c2nc(-c3ccccn3)no2)cc1Cl", "Potency": "inconclusive: 11.2 µM [inhibitor, single point]"},
      {"smiles": "COc1ccc2c(C)c(C(=O)O)oc2c1", "activity change, negative = inhibition": "inactive: -1.18%"},
      {"smiles": "COc1ccc(NC(=O)CN(c2cc(C)cc(C)c2)S(=O)(=O)c2c(C)noc2C)cc1Cl", "Potency": "inconclusive: 39.8 µM [inhibitor, single point]"},
      {"smiles": "Cc1cccc(C)c1-n1nnnc1C(c1ccnc2ccccc12)N1CCN(C/C=C/c2ccccc2)CC1", "note": "(stereo unspecified)", "Potency": "inconclusive: 39.8 µM [inhibitor, single point]"},
      {"smiles": "O=C1C=C(NCc2ccc(Cl)c(Cl)c2)CC1", "activity change, negative = inhibition": "inactive: -14.2%"},
      {"smiles": "COc1ccc(C(=O)NCc2nnc(SCC(=O)N3CCCCC3)o2)cc1", "Potency": "inconclusive: 0.752 µM [inhibitor, partial curve, poor fit]"},
      {"smiles": "O=C(Nc1ccc(Cl)cc1)c1nc[nH]c1C(=O)Nc1ccccc1F", "Potency": "inconclusive: 39.8 µM [inhibitor, partial curve, poor fit]"},
      {"smiles": "CN(C)CCNc1ccc(CO)c2sc3ccc(O)cc3c(=O)c12", "Potency": "active: 2.67 µM"},
      {"smiles": "OC(c1ccc(OCc2ccccc2)cc1)c1nnc(-c2ccccc2)o1", "note": "(stereo unspecified)", "activity change, negative = inhibition": "inactive: -13.1%"},
      {"smiles": "COc1ccc2[nH]c(=O)c(CN(Cc3ccco3)C(=O)c3ccccc3)cc2c1", "activity change, negative = inhibition": "inactive: 0.516%"},
      {"smiles": "CCCCn1c(-c2ccc(Br)cc2F)nc2c1c(=O)[nH]c(=O)n2CC(C)C", "Potency": "inconclusive: 20 µM [inhibitor, partial curve, poor fit]"},
      {"smiles": "COc1ccc(C(C)=O)cc1COC(=O)c1cnc(Cl)c(Cl)c1", "activity change, negative = inhibition": "inactive: 1.11%"},
      {"smiles": "CCCCn1c(SCC(=O)Nc2cc(NC(=O)c3ccco3)ccc2C)nc2ccccc2c1=O", "Potency": "inconclusive: 31.6 µM [inhibitor, partial curve, poor fit]"},
      {"smiles": "Cn1nnnc1Sc1ncnc2scc(-c3cccc(F)c3)c12", "Potency": "inconclusive: 5.01 µM [inhibitor, full curve, poor fit]"},
      {"smiles": "COc1ccc(NC(=O)CSc2nc(-c3ccc(F)cc3)[nH]c2-c2ccc(C)cc2)cc1OC", "Potency": "inconclusive: 39.8 µM [inhibitor, single point]"},
      {"smiles": "CCN(CC)CCCCNc1ncc2cc(-c3cc(OC)cc(OC)c3)c(NC(=O)NC(C)(C)C)nc2n1", "Potency": "inconclusive: 27.3 µM [inhibitor, partial curve] and inconclusive: 22.4 µM [inhibitor, partial curve]"},
      {"smiles": "Cc1ccc(-n2c(C)nc3c(cnn3-c3ccc(F)cc3)c2=O)cc1C", "activity change, negative = inhibition": "inactive: -3.11%"},
      {"smiles": "Cc1ccc(CNC(=O)c2cc(C)nc3c2c(C)nn3-c2ccc(C)cc2)cc1", "activity change, negative = inhibition": "inactive: 11.6%"},
      {"smiles": "CNCc1ccccc1Sc1cc(O)ccc1O", "Potency": "inconclusive: 16.8 µM [inhibitor, partial curve, poor fit]"},
      {"smiles": "Cc1cccc(NS(=O)(=O)Cc2ccccc2)n1", "activity change, negative = inhibition": "inactive: 8.55%"},
      {"smiles": "CN(C)CCCN(C(=O)c1cc2cc([N+](=O)[O-])ccc2s1)c1nc2cc3c(cc2s1)OCCO3", "Potency": "inconclusive: 31.6 µM [inhibitor, single point]"}
    ]}
  ]
}
